Assay results as given in the supplement of paper PMC12217912.
This is one part of the list. Sequences were assembled here from the parent chain. Values near 0.05 are background.

B1: TEV protease; numbered along this chain (parent)
chain: MGESLFKGPRDYNPISSSICHLTNESDGHTTSLYGIGFGPFIITNKHLFRRNNGTLVVQSLHGVFKVKDTTTLQQHLVDGRDMIIIRMPKDFPPFPQKLKFREPQREERICLVTTNFQTKSMSSMVSDTSCTFPSGDGIFWKHWIQTKDGQCGSPLVSTRDGFIVGIHSASNFTNTNNYFTSVPKNFMELLTNQEAQQWVSGWRLNADSVLWGGHKVFMVKPEEPFQPVKEATQL

Variants of: B1
Test: raw area under fraction-flipped curve 0-4 h after induction (AUC4h, not background-subtracted), DNA-recorder readout of cleavage of the substrate (dimensionless); higher = more cleavage of the substrate by the protease variant
Conditions: temperature: 34 °C; time window: 0-4 h after rhamnose induction
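Further: Bxb1 expression induced with 0.2% (w/v) L-rhamnose at OD600 near 0.5, cultures sampled hourly, flipped fraction per protease–substrate barcode pair counted by paired-end Illumina sequencing.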

Variant | area with substrate KNLYFQS | area with substrate NNLYFQS | area with substrate PNLYFQS | area with substrate WNLYFQS | area with substrate LNLYFQS | area with substrate RNLYFQS | area with substrate TNLYFQS | area with substrate YNLYFQS | area with substrate SNLYFQS | area with substrate VNLYFQS
MGESLFKGPRDYNPISSSICHLTNESDGHTTSLYGIGFGPFIITNKHLFRRNNGTLVGQSLHGVFKVKDTTTLQQHLVDGRDMIIIRMPKDFPPFPQKLKFREPQREERICLVTTNFQTKSMSSMVSDTSCTFPSGDGIFWKHWIQTKDGQCGSPLVSTRDGFIVGIHSASNFTNTNNYFTSVPKNFMELLTNQEAQQWVSGWRLNADSVLWGGHKVFMVKPEEPFQPVKEATQL [V58G] | 0.0621 | 0.0457 | 0.0585 | 0.0407 |  |  |  |  |  | 
MGESLFKGPRDYNPISSSICHLTNESDGHTTSLYGIGFGPFIITNKHLFRRNNGTLVVQSLHGVFKVKDTTTLQQHLVDGRDMIIIRMPKDFPPFPQKLKFREPQREERICLVTTNFQTKSMSSMVSDTSCTFPSGDGIFWKHWIQTKDGQCGSPLVSTRDGFIVGIHSASNFTNTNNYFTSVPKNFMELLTNQEAQQWVSGWRLNADSVLAGGHKVFMVKPEEPFQPVKEATQL [W212A] |  |  |  |  | 0.0659 | 0.0663 | 0.0527 |  |  | 
MGESLFKGPRDYNPISSSICHLTNESDGHTTSLYGIGFGPFIITNKHLFRRNNGTLVVQSLHGVFKVKDTTTLQQHLVDGRDMIIIRMPKDFPPFPQKLKFREPQREERICLVTTNFQTKSMSSMVSDTSCTFPSGDGIFWKHWIQTKDGQCGSPLVSTRDGFIVGIHSASNFTNTNNYFTSVPKTFMELLTNQEAQQWVSGWRLNADSVLWGGHKVFMVKPEEPFQPVKEATQL [N186T] | 0.0464 |  |  | 0.0685 | 0.0862 |  |  | 0.0579 |  | 
MGESLFKGPRDYNPISSSICHLTNESDGHTTSLYGIGFGPFIITNKHLFRRNNGTLVVQSLHGVFKVKDTTTLQQHLVDGRDMIIIRMPKDFPPFPQKLKFREPQREERICLVTTNFQTKSMSSMVSDTSCTFPSGDGIFWKHWIQTKDGQCGSPLVSTRDGFIVGIHSASNFTNTNNYFTSVPKNFMELLTNQEAQQWVSGWRSNADSVLWGGHKVFMVKPEEPFQPVKEATQL [L205S] |  |  |  | 0.0661 | 0.0535 |  | 0.0722 | 0.0309 |  | 
MGESLFKGPRDYNPISSSICHLTNESDGHTTSLYGIGFGPFIITNKHLFRRNNGTLVVQSLHGVFKVKDTTTLQQHLVDGRDMIIIRMPKDFPPFPQKLKFREPQREERICLVTTNFQTKSMSSMVSDTSCTFPSGDGIFWKHWIQTKDGQCGSPLVSTRDGFILGIHSASNFTNTNNYFTSVPKNFMELLTNQEAQQWVSGWRLNADSVLWGGHKVFMVKPEEPFQPVKEATQL [V165L] | 0.0661 |  | 0.0667 |  |  |  | 0.104 | 0.0704 | 0.0527 | 0.0674
MGESLFKGPRDYNPISSSICHLTNESDGHTTSLYGIGFGPFIITNKHLFRRNNGTLVVQSLHGVFKVKDTTTLQQHLVDGRDMIIIRMPKDFPPFPQKLKFREPQREERICLVTTNFQTKSMSSMVSDTSCTFPSGDGIFWKHWIQTKDGQCGSPLVSTRDGFIVGIHSASNFTNTNNYFTSVPKNFMELLTNQEAQQWVSGWRLNADSVLWGGHKVFMVKPEEPFQPVAEATQL [K230A] |  |  |  |  | 0.0351 |  | 0.0588 |  |  | 
MGESLFKGPRDYNPISSSICHLTNESDGHTTSLYGIGFGPFIITNKHLFRRNNGTLVVQSLHGVFKVKDTTTLQQHLVDGRDMIIIRMPKDFPPFPQKLKFREPQREERICLVTTNFQTKSMSSMVSDTSCTFPSGDGIFWKHWIQTKDGQCGSPLVSTRDGFIVGIHSASNFTNTNNYSTSVPKNFMELLTNQEAQQWVSGWRLNADSVLWGGHKVFMVKPEEPFQPVKEATQL [F180S] | 0.0673 |  | 0.0481 |  |  |  |  |  |  | 
MGESLFKGPRDYNPISSSICHLTNESDGHTTSLYGIGFGPFIITNKHLFRRNNGTLVVQSLHGVFKVKDTTTLQQHLVDGRDMIIIRMPKDFPPFPQKLKFREPQREERICLVTTNFQTKSMSSMVSDTSCTFPSGDGIFWKHWIQTKDGQCGSPLVSTRDGFIVGIHSASNFTNTNNYFTSVPKNFMELLTNQEAQQWVSGWRLNADSVDWGGHKVFMVKPEEPFQPVKEATQL [L211D] |  |  |  |  | 0.0655 |  |  |  |  | 
MGESLFKGPRDYNPISSSICHLTNESDGHTTSLYGIGFGPFIITNKHLFRRNNGTLVVQSLHGVFKVKDTTTLQQHLVDGRDMIIIRMPKDFPPFPQKWKFREPQREERICLVTTNFQTKSMSSMVSDTSCTFPSGDGIFWKHWIQTKDGQCGSPLVSTRDGFIVGIHSASNFTNTNNYFTSVPKNFMELLTNQEAQQWVSGWRLNADSVLWGGHKVFMVKPEEPFQPVKEATQL [L99W] | 0.0501 |  |  |  |  |  |  |  |  | 
MGESLFKGPRDYNPISSSICHLTNESDGHTTSLYGIGFGPFIITNKHLFRRNNGTLVVQSLHGVFKVKDTTTLQQHLVDGRDMIIIRMPKDFPPFPQKLKFREPQREERICLVTTNFQTKSMSSMVSDTSCTFPSGDGIFWKHWIQTKDGQCGSPLVSTRDGFIVGIHSASNFTNTNNYFTSVPKNFMELLTNQEAQQWVSGWRLNADYVLWGGHKVFMVKPEEPFQPVKEATQL [S209Y] | 0.0774 |  |  |  | 0.0813 |  |  |  |  | 0.0711
MGESLFKGPRDYNPISSSICHLTNESDGHTTSLYGIGFGPFIITNKHLFRRNNGTLVVQSLHGVFKVKDTTTLQQHLVDGRDMIIIRMPKDFPPFPQKLKFREPQREERICLVTTNFQTKSMSSMVSDTSCTFPSGDGIFWKHWIQTKDGQCGSPLVSTRDGFIVGIHSASNFTNTNNYFTSVPKNFMELLTNQEAQQWVSGPRLNADSVLWGGHKVFMVKPEEPFQPVKEATQL [W203P] | 0.0666 | 0.0638 |  |  |  |  | 0.0577 | 0.063 |  | 
MGESLFKGPRDYNPISSSICHLTNESDGHTTSLYGIGFGPFIITNKHLFRRNNGTLVVQSLHGVFKVKDTTTLQQHLVDGRDMIIIRMPKDFPPFPQKLKFREPQREERICLVTTNFQTKSMSSMVSDTSCTFPSGDGIFWKHWIQTKDGQCGSPLVSTRDGFIVGIHSASNFENTNNYFTSVPKNFMELLTNQEAQQWVSGWRLNADSVLWGGHKVFMVKPEEPFQPVKEATQL [T174E] | 0.0541 |  |  | 0.056 |  |  | 0.0599 |  |  | 

Same assay, conditions: temperature: 34 °C; time window: 0-4 h after rhamnose induction

Variant | area with substrate MNLYFQS
MGESLFKGPRDYNPISSSICHLTNESDGHTTSLYGIGFGPFIITNKHLFRRNNGTLVVQSLHGVFKVKDTTTLQQHLVDGRDMIIIRMPKDFPPFPQKWKFREPQREERICLVTTNFQTKSMSSMVSDTSCTFPSGDGIFWKHWIQTKDGQCGSPLVSTRDGFIVGIHSASNFTNTNNYFTSVPKNFMELLTNQEAQQWVSGWRLNADSVLWGGHKVFMVKPEEPFQPVKEATQL [L99W] | 0.0633
MGESLFKGPRDYNPISSSICHLTNESDGHTTSLYGIGFGPFIITNKHLFRRNNGTLVVQSLHGVFKVKDTTTLQQHLVDGRDMIIIRMPKDFPPFPQKLKFREPQREERICLVTTNFQTKSMSSMVSDTSCTFPSGDGIFWKHWIQTKDGQCGSPLVSTRDGFIVGIHSASNFTNTNNYFTSVPKNFMELLTNQEAQQWVSGWRLNADYVLWGGHKVFMVKPEEPFQPVKEATQL [S209Y] | 0.0872
MGESLFKGPRDYNPISSSICHLTNESDGHTTSLYGIGFGPFIITNKHLFRRNNGTLVVQSLHGVFKVKDTTTLQQHLVDGRDMIIIRMPKDFPPFPQKLKFREPQREERICLVTTNFQTKSMSSMVSDTSCTFPSGDGIFWKHWIQTKDGQCGSPLVSTRDGFIVGIHSASNFENTNNYFTSVPKNFMELLTNQEAQQWVSGWRLNADSVLWGGHKVFMVKPEEPFQPVKEATQL [T174E] | 0.0588
